The supplement of paper PMC3334620
In all, about 33,000 sequences were measured (“E-score (-0.5 to 0.5)”: median about -0.035, highest 2% from about 0.35 on). The list shows a part of the results.

target: T1, Pdr3 (UniProt P33200); test: PBM E-score (8-mer binding enrichment) (E-score (-0.5 to 0.5)); higher = stronger / more preferred TF binding; most listed sequences are background and not binding sites; conditions: protein concentration: 200 nM; construct: GST-full length
T1 sequence: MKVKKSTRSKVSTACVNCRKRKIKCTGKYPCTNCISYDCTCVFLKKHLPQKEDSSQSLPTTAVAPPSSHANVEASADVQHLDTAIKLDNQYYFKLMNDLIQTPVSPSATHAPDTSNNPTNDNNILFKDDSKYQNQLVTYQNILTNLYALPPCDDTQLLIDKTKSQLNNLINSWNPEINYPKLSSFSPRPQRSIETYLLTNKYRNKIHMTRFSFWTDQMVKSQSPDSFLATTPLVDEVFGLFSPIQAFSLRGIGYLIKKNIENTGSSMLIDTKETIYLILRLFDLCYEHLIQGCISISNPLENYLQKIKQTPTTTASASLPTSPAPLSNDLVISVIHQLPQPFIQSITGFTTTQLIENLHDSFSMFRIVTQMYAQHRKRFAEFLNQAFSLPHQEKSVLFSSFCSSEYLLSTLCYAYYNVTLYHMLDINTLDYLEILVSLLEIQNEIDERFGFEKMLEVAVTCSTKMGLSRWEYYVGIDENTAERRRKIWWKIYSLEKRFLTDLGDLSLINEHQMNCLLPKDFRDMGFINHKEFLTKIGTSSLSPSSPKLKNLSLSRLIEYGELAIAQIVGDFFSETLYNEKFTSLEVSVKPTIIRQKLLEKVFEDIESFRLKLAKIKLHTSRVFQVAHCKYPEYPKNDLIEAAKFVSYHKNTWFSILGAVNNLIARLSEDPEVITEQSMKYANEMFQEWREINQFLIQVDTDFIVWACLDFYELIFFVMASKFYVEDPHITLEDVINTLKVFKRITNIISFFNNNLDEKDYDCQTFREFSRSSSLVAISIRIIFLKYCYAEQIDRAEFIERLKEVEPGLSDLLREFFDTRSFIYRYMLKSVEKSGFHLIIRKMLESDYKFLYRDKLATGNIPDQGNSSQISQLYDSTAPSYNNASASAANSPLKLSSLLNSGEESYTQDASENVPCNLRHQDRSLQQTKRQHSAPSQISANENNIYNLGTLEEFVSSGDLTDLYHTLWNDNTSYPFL
How it was run: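 GST-tagged yeast TFs (full-length or DNA-binding domain) were made by PURExpress in vitro transcription/translation and applied at about 100-200 nM to universal all-10-mer Agilent arrays. The arrays were made double-stranded by primer extension, on fresh or once-stripped slides. Bound protein was detected with fluorescent anti-GST, and scans were normalised with masliner. Each ungapped eight-base word, pooled with its reverse complement, received an E-score (modified Wilcoxon-Mann-Whitney statistic) from the Universal PBM Analysis Suite.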

| Sequence | PBM E-score |
| --- | --- |
| CAACAAAA | -0.155 |
| CTCCGGAG | 0.476 |
| ACTCTATG | 0.0265 |
| ACGGTCAG | -0.362 |
| AGGAAACG | -0.0809 |
| CCCGTAAC | 0.137 |
| TGAGGCAA | -0.0239 |
| ACCGACGT | 0.065 |
| ATCTACTG | -0.0583 |
| GCACGTTA | -0.0451 |
| CATGTGGG | -0.0907 |
| CACAGTGA | -0.174 |
| AACGGTTC | 0.0452 |
| AAAGACAA | 0.0119 |
| ACCTGTTC | 0.109 |
| CCGGCAAA | 0.334 |
| ACACCATC | -0.137 |
| AGCACAAT | -0.0957 |
| GTAATAAA | -0.0477 |
| GTCAGTTA | -0.333 |
| CATGTTTA | -0.0824 |
| CCCAGGCG | 0.0338 |
| CTCTTCTC | -0.18 |
| CATTCACA | -0.136 |
| ACTTGCTC | -0.167 |

| Sequence | PBM E-score |
| --- | --- |
| ACCATAAT | -0.0319 |
| CGTCGTAA | -0.0777 |
| CACAGATC | -0.0459 |
| AATGGGTC | 0.00661 |
| CCGATCCC | 0.175 |
| GCGCCATA | 0.00087 |
| AGTTTGCA | -0.124 |
| AAATGCAG | -0.19 |
| TCTTGCCA | -0.0983 |
| TCAGGGAA | -0.0594 |
| CAACTTCC | 0.225 |
| ACCTAGTG | 0.0344 |
| AGAGACTA | -0.149 |
| CACAGCTC | -0.145 |
| AAGATTGG | 0.014 |
| GGCACGAC | -0.0454 |
| AAATTCTG | -0.00185 |
| GCAGGACC | -0.106 |
| CCACTATA | -0.0588 |
| GTTTCCGA | 0.429 |
| GCCGGAGC | 0.236 |
| CCCATTCG | -0.0187 |
| GAAATGAC | 0.016 |
| AATTTTGC | -0.0148 |
| AAGCCCTG | -0.149 |

| Sequence | PBM E-score |
| --- | --- |
| AATATGCG | 0.0521 |
| CCTATTAG | -0.155 |
| CCCCATAA | -0.0128 |
| CAGCATCG | -0.131 |
| AGGGATTC | -0.0434 |
| CGCTGGCA | -0.0515 |
| CCATATGC | 0.00589 |
| GATCTATA | -0.013 |
| CTGGCCAC | -0.0797 |
| ACCTGTCC | -0.0778 |
| CAAACCCG | 0.116 |
| AGTTAGCC | -0.0494 |
| GGAACTGA | 0.303 |
| ACGGATAG | 0.216 |
| ACGGCCGA | 0.293 |
| CAGCGTCG | 0.0355 |
| ATGTAAGG | -0.098 |
| CCAGAGCC | -0.0854 |
| CGCTTCTC | 0.0912 |
| GACTAATA | -0.0553 |
| AGAATGCC | -0.0948 |
| TAGAAATA | -0.0487 |
| AGTGAACA | -0.107 |
| TGGTCGAA | -0.246 |
| GATTTGTA | 0.0487 |

| Sequence | PBM E-score |
| --- | --- |
| CGCTTTAG | -0.0573 |
| GTTGTTGA | -0.0135 |
| AACTCGAA | -0.0881 |
| AGCTCATC | 0.063 |
| GACGGGCA | 0.103 |
| CGCAGTAC | -0.151 |
| TCGCCTAA | -0.0457 |
| CCTAACAG | -0.0931 |
| ACGTTATG | -0.0542 |
| CATGGCTA | -0.115 |
| GCTTATTA | -0.127 |
| CTAGATCA | -0.255 |
| ACCGTGAG | -0.177 |
| TTAAGGAA | 0.00789 |
| ACACGAAG | 0.0513 |
| AGGAAAGG | -0.311 |
| CGTTCAAC | 0.082 |
| CTTGCTGC | -0.269 |
| GATGCAAC | -0.0567 |
| ATACGAGG | -0.0563 |
| AGCCGCGA | 0.187 |
| GGACGATA | 0.0265 |
| CGTCGCGC | 0.131 |
| ACTCGCCG | 0.179 |
| CATCCCGC | 0.315 |

| Sequence | PBM E-score |
| --- | --- |
| GTACACCA | -0.224 |
| CAGACTCA | -0.133 |
| GGACAGAA | 0.112 |
| GATTCCGA | 0.454 |
| AAACTAGT | 0.0203 |
| ATGAGCGC | 0.0358 |
| AAAGATTA | 0.0181 |
| CGCTCTTC | -0.0425 |
| AAGCTCAC | -0.041 |
| AGATGGCT | -0.182 |
| CCCCTCGG | 0.164 |
| ACCACGAC | -0.0488 |
| GCTTGCGA | 0.00635 |
| ATTCATTG | -0.0508 |
| CTGATCCC | 0.0105 |
| CTACATAG | -0.115 |
| GACCCGCC | 0.22 |
| ATAAGTGA | -0.0759 |
| AGCTGCCC | 0.257 |
| AGCGTAGA | -0.0782 |
| AATCAGGA | -0.0567 |
| GCCAATAC | 0.0182 |
| ATCACATG | -0.0748 |
| ACAACGGA | 0.375 |
| CCCCCTTC | -0.302 |

| Sequence | PBM E-score |
| --- | --- |
| CAACATTC | -0.0388 |
| TGCCACAA | 0.0308 |
| CGTTACGC | -0.1 |
| CTAAAAGC | -0.109 |
| AAATGTTC | -0.0576 |
| CTTTGAGA | -0.0374 |
| ATTCCGCA | 0.379 |
| AACCCATG | -0.0258 |
| AAGAGCAT | -0.0207 |
| ACATGGTG | -0.19 |
| ACGGGACC | 0.241 |
| CTCGAGGA | -0.0629 |
| ATGGCAAG | 0.0377 |
| AGTATCAG | -0.102 |
| AGCGCTTC | 0.0822 |
| CAAAATGG | 0.112 |
| CCCGAACG | 0.186 |
| TAACGGAA | 0.453 |
| CACTTGGG | -0.108 |
| ACCCGGGT | 0.446 |
| CACATAGA | -0.167 |
| ACAGATCA | 0.0817 |
| GGCGTGGA | -0.0741 |
| CACTCTCA | -0.298 |
| GAAATTAA | 0.1 |

| Sequence | PBM E-score |
| --- | --- |
| CCTTACGA | -0.14 |
| ATCTCTAA | 0.0104 |
| TCATAACA | -0.0698 |
| ATTTATCC | 0.235 |
| TAAAATTA | 0.025 |
| AGAACCCG | 0.111 |
| CAAGCAGG | -0.0877 |
| ACGGCCAA | 0.158 |
| CGTCTCGC | -0.119 |
| AGCAACTC | -0.0636 |
| AATCTGAA | -0.0156 |
| AATCTAGC | -0.288 |
| GCATCAGC | 0.0573 |
| TAGCATCA | -0.0373 |
| TCCCAAAA | -0.0463 |
| CTCCGTTC | 0.367 |
| CACAGACC | 0.151 |
| CGACCACC | 0.0539 |
| GATGTTTA | 0.0962 |
| ATAATAGA | -0.0653 |
| CCACCACC | -0.0836 |
| AATTGAAT | -0.0365 |
